Data published in the supplement of paper PMC8728848.
The other results are listed elsewhere or left out.

Tests used:
Experiment in all cases: glycan array binding signal (z-score within array); higher = stronger binding
Settings in all cases: glycan notation: IUPAC condensed, linker removed
GlcNAc(b1-3)Man = molecular target: GlcNAc(b1-3)Man
Outline: (§1)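 Glycan array binding is given as a within-array Z-score, which can be read as non-binding when negative. The arrays, 3228 of them, came from the Consortium for Functional Glycomics database and were retained only where the protein sequence was available. Z-scores were averaged across arrays of the same protein sequence at different concentrations or buffers and across linkers.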

[1] = molecular target: GlcNAc(b1-3)[GlcNAc(b1-4)][GlcNAc(b1-6)]GlcNAc
Outline: as §1

[2] = molecular target: GlcNAc(b1-3)[GlcNAc(b1-6)]Gal(b1-4)GlcNAc
Outline: as §1

[3] = molecular target: GlcNAc(b1-3)[GlcNAc(b1-6)]GalNAc
Outline: as §1

[4] = molecular target: GlcNAc(b1-4)Gal(b1-4)GlcNAc
Outline: as §1

GlcNAc(b1-4)GlcNAc = molecular target: GlcNAc(b1-4)GlcNAc
Outline: as §1

[5] = molecular target: GlcNAc(b1-4)GlcNAc(b1-4)GlcNAc
Outline: as §1

[6] = molecular target: GlcNAc(b1-4)GlcNAc(b1-4)GlcNAc(b1-4)GlcNAc(b1-4)GlcNAc
Outline: as §1

[7] = molecular target: GlcNAc(b1-4)GlcNAc(b1-4)GlcNAc(b1-4)GlcNAc(b1-4)GlcNAc(b1-4)GlcNAc
Outline: as §1

[8] = molecular target: GlcNAc(b1-4)[GlcNAc(b1-6)]GalNAc
Outline: as §1

[9] = molecular target: GlcNAc(b1-6)Gal(b1-4)GlcNAc
Outline: as §1

GlcNAc(b1-6)GalNAc = molecular target: GlcNAc(b1-6)GalNAc
Outline: as §1

[10] = molecular target: GlcNAc6S(b1-3)Gal(b1-4)GlcNAc
Outline: as §1

Kdn(a2-3)Gal(b1-3)GalNAc = molecular target: Kdn(a2-3)Gal(b1-3)GalNAc
Outline: as §1

Kdn(a2-3)Gal(b1-3)GlcNAc = molecular target: Kdn(a2-3)Gal(b1-3)GlcNAc
Outline: as §1

Kdn(a2-3)Gal(b1-4)Glc = molecular target: Kdn(a2-3)Gal(b1-4)Glc
Outline: as §1

Kdn(a2-3)Gal(b1-4)GlcNAc = molecular target: Kdn(a2-3)Gal(b1-4)GlcNAc
Outline: as §1

[11] = molecular target: Kdn(a2-3)Gal(b1-4)[Fuc(a1-3)]GlcNAc
Outline: as §1

Kdn(a2-6)Gal(b1-4)GlcNAc = molecular target: Kdn(a2-6)Gal(b1-4)GlcNAc
Outline: as §1

[12] = molecular target: Man(a1-2)Man(a1-2)Man(a1-3)Man
Outline: as §1

[13] = molecular target: Man(a1-2)Man(a1-2)Man(a1-6)[Man(a1-3)]Man
Outline: as §1

Man(a1-2)Man(a1-3)Man = molecular target: Man(a1-2)Man(a1-3)Man
Outline: as §1

[14] = molecular target: Man(a1-2)Man(a1-3)[Man(a1-2)Man(a1-6)]Man
Outline: as §1

[15] = molecular target: Man(a1-2)Man(a1-3)[Man(a1-2)Man(a1-6)]Man(a1-6)[Man(a1-2)Man(a1-2)Man(a1-3)]Man
Outline: as §1

[16] = molecular target: Man(a1-2)Man(a1-3)[Man(a1-2)Man(a1-6)]Man(a1-6)[Man(a1-2)Man(a1-2)Man(a1-3)]Man(b1-4)GlcNAc(b1-4)GlcNAc
Outline: as §1

[17] = molecular target: Man(a1-2)Man(a1-3)[Man(a1-6)]Man(a1-6)[Man(a1-2)Man(a1-3)]Man(b1-4)GlcNAc(b1-4)GlcNAc
Outline: as §1

[18] = molecular target: Man(a1-2)Man(a1-6)[Man(a1-3)]Man(a1-6)[Man(a1-2)Man(a1-2)Man(a1-3)]Man
Outline: as §1

[19] = molecular target: Man(a1-2)Man(a1-6)[Man(a1-3)]Man(a1-6)[Man(a1-2)Man(a1-2)Man(a1-3)]Man(b1-4)GlcNAc(b1-4)GlcNAc
Outline: as §1

Man(a1-3)[Man(a1-6)]Man = molecular target: Man(a1-3)[Man(a1-6)]Man
Outline: as §1

[20] = molecular target: Man(a1-3)[Man(a1-6)]Man(a1-6)[Man(a1-2)Man(a1-3)]Man(b1-4)GlcNAc(b1-4)GlcNAc
Outline: as §1

[21] = molecular target: Man(a1-3)[Man(a1-6)]Man(a1-6)[Man(a1-3)]Man
Outline: as §1

[22] = molecular target: Man(a1-3)[Man(a1-6)]Man(a1-6)[Man(a1-3)]Man(b1-4)GlcNAc(b1-4)GlcNAc
Outline: as §1

[23] = molecular target: Man(a1-3)[Man(a1-6)]Man(b1-4)GlcNAc(b1-4)GlcNAc
Outline: as §1

[24] = molecular target: Man(a1-3)[Man(a1-6)]Man(b1-4)GlcNAc(b1-4)[Fuc(a1-6)]GlcNAc
Outline: as §1

Man(a1-6)Man = molecular target: Man(a1-6)Man
Outline: as §1

Man(b1-4)GlcNAc = molecular target: Man(b1-4)GlcNAc
Outline: as §1

MurNAc(b1-4)GlcNAc = molecular target: MurNAc(b1-4)GlcNAc
Outline: as §1

Neu5Ac(a2-3)Gal = molecular target: Neu5Ac(a2-3)Gal
Outline: as §1

B1: ClecSol-Fc (Cryptosporidium parvum) (protein)
chain: CPEGWISNGEKTRCFKLVTFDRPRTFSHGFKACNDLGGTEVETRRRNGSKETNEYPVTLASVYKLSDEEAIRRTLVEQGDIHKTANGCFVGLRKYAFFRYPPGWYWIDSGSPVSVRDSEINWTSSYNASWLLRFKFPFEKCGFFDIGGLGRRPCWLIDSELSCAVCGTVAYDSGGLNPNKYSELIKQTDEIISKEPKLDLPGYNNLNCTDAWENNLSVGLCQNVSNILDSAWSSYQSSLNFPSINFNWKEDSTNEGGDQVYHNSYLDLPRYKQKKTFYWDQDPGTIPALSDEMKLIGLSAQPTYHPLDRSSSGSFESDSTESGRANEERNDTLEEMIYKQSSDSIEDILVPVTKPIFSDYSSIGRNSGVEEVYSSNVSTISSKGVVFPNTTTSSDNDFTKNNPANSSKHTSTSTTTNTTTTTTRTTTTTTTTTTTTTTTTTTTTETTTTKKSTTATKNTTTT
- glycan array binding signal (z-score) (GlcNAc(b1-3)Man): -0.097
- glycan array binding signal (z-score) [1]: -0.066
- glycan array binding signal (z-score) [2]: 0.016
- glycan array binding signal (z-score) [3]: -0.039
- glycan array binding signal (z-score) [4]: -0.054
- glycan array binding signal (z-score) (GlcNAc(b1-4)GlcNAc): 5.31
- glycan array binding signal (z-score) [5]: -0.211
- glycan array binding signal (z-score) [6]: -0.176
- glycan array binding signal (z-score) [7]: 0.013
- glycan array binding signal (z-score) [8]: -0.08
- glycan array binding signal (z-score) [9]: -0.166
- glycan array binding signal (z-score) (GlcNAc(b1-6)GalNAc): -0.188
- glycan array binding signal (z-score) [10]: -0.249
- glycan array binding signal (z-score) (Kdn(a2-3)Gal(b1-3)GalNAc): -0.114
- glycan array binding signal (z-score) (Kdn(a2-3)Gal(b1-3)GlcNAc): 0.244
- glycan array binding signal (z-score) (Kdn(a2-3)Gal(b1-4)Glc): -0.08
- glycan array binding signal (z-score) (Kdn(a2-3)Gal(b1-4)GlcNAc): -0.05
- glycan array binding signal (z-score) [11]: -0.089
- glycan array binding signal (z-score) (Kdn(a2-6)Gal(b1-4)GlcNAc): 0.075
- glycan array binding signal (z-score) [12]: -0.284
- glycan array binding signal (z-score) [13]: -0.165
- glycan array binding signal (z-score) (Man(a1-2)Man(a1-3)Man): -0.081
- glycan array binding signal (z-score) [14]: -0.033
- glycan array binding signal (z-score) [15]: -0.203
- glycan array binding signal (z-score) [16]: -0.099
- glycan array binding signal (z-score) [17]: -0.067
- glycan array binding signal (z-score) [18]: -0.145
- glycan array binding signal (z-score) [19]: -0.127
- glycan array binding signal (z-score) (Man(a1-3)[Man(a1-6)]Man): -0.292
- glycan array binding signal (z-score) [20]: -0.14
- glycan array binding signal (z-score) [21]: -0.016
- glycan array binding signal (z-score) [22]: -0.229
- glycan array binding signal (z-score) [23]: -0.001
- glycan array binding signal (z-score) [24]: -0.104
- glycan array binding signal (z-score) (Man(a1-6)Man): 0.126
- glycan array binding signal (z-score) (Man(b1-4)GlcNAc): -0.06
- glycan array binding signal (z-score) (MurNAc(b1-4)GlcNAc): 0.04
- glycan array binding signal (z-score) (Neu5Ac(a2-3)Gal): -0.199
